About 2,200 (0.71%) of roughly 310,000 compounds showed an effect of 50% or more. The effect is printed as a negative number. Some of the results follow.
Each molecule was assayed against human ether-à-go-go-related gene (hERG) potassium channel (human, UniProt Q12809) (assay: primary screen, population patch clamp on CHO cells stably expressing hERG).
Chain of human ether-à-go-go-related gene (hERG) potassium channel (Q12809 whole entry, looked up): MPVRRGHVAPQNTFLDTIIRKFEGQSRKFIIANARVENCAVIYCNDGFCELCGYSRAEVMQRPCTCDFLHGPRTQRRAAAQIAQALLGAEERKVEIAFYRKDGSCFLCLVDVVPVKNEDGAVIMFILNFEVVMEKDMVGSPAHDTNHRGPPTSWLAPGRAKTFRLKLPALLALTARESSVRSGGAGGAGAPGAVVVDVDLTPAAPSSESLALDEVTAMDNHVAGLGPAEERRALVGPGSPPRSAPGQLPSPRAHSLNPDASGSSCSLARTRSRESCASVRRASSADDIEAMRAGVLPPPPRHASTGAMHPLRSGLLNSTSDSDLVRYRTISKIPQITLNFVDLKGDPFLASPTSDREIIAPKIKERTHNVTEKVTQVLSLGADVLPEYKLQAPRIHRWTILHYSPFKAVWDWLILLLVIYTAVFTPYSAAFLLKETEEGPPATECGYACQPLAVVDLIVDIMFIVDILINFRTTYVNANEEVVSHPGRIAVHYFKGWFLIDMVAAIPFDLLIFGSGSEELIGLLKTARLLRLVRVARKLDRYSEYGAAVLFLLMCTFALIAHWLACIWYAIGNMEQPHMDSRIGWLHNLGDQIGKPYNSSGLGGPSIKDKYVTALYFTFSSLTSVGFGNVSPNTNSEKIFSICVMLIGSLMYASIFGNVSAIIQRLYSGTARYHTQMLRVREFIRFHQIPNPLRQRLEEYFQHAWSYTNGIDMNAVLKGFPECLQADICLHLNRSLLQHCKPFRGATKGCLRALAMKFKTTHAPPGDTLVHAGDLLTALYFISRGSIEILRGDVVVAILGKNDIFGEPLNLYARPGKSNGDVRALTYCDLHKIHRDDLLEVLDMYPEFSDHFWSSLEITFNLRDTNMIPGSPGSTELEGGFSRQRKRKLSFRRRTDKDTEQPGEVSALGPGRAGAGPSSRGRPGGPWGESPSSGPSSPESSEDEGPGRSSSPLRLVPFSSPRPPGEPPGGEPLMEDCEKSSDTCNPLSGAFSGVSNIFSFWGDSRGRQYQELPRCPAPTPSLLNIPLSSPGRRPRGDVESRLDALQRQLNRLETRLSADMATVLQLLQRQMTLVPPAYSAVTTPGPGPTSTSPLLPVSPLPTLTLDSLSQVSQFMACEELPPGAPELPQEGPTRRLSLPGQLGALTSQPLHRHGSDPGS

Row | SMILES | hERG current change (%, negative = inhibition) at 1uM
1 | CC(C)CC(=O)Nc1nc2ccc(S(=O)(=O)N3CCOCC3)cc2s1 | 8.91%
2 | CC1(C)Cc2c(c(N3CCCC3)[nH]c(=S)c2C#N)CO1 | 8.08%
3 | Cc1ccsc1/C=C(\C#N)C(=O)NCc1ccco1 | 5.27%
4 | COc1ccccc1-c1nnc(C2CCN(S(=O)(=O)c3ccc([N+](=O)[O-])cc3)CC2)o1 | -43.8%
5 | CC1=CC2=NC(=O)CC(C)(C(=O)N(CC(=O)NC(C)(C)C)C3CCCC3)N2C=C1 (stereo not drawn) | 3.74%
6 | c1ccc(-c2nc(-c3cccnc3)n[nH]2)cc1 | 9.51%
7 | O=c1c2cc(Cl)ccc2[nH]c(=S)n1Cc1ccccn1 | 15.5%
8 | CC(c1ccon1)N(C)C(=O)CCc1nnc(CCCCc2ccccc2)o1 (stereo not drawn) | -9.32%
9 | CCOC(=O)c1cccc(NC(=O)Nc2ccc(OCC)cc2)c1 | 5.89%
10 | CCn1cc([N+](=O)[O-])c(C(=O)Nc2nc3ccc(OC)cc3s2)n1 | 22.5%
11 | CCCCn1c(CNC(=O)C23CC4CC(CC(C4)C2)C3)nnc1SCC(=O)Nc1nnc(C)s1 | 5.13%
12 | CCOc1ccc(Nc2nc3ccccc3c(=O)s2)cc1 | 13.9%
13 | C=CCOc1ccc(C2N3CC4(C)CN2CC(CCC)(C3)C4=O)cc1 (stereo not drawn) | 5.52%
14 | CCCCc1cc(=O)oc2cc(C)cc(OCC(=O)Nc3ccccn3)c12 | 24.5%
15 | C=CCNC(=O)C1CC2Cn3c(nc4cc(C)c(C)cc43)C2N1C (stereo not drawn) | 4.68%
16 | COc1ccc(N2CCN(C(=O)COC(=O)CCOc3ccc(C(C)(C)C)cc3)CC2)cc1 | 22.1%
17 | Cc1cc(NC(=O)COC(=O)CNC(=O)c2cccs2)c([N+](=O)[O-])cc1C | 2.85%
18 | Cc1cc(C)c2c(n1)SCC(=O)N2CC(=O)Nc1ccc(F)cc1 | 2.57%
19 | COc1ccc(OCC(O)CNC(=O)c2ccc(OC)cc2)cc1 (stereo not drawn) | 12.7%

Row | SMILES | hERG current change (%, negative = inhibition) at 1uM
20 | O=C(Nc1ccc(S(=O)(=O)N2CCCCCC2)cc1)c1[nH]ncc1[N+](=O)[O-] | 35%
21 | COc1ccc(CC(=O)NC(C)c2nnc(SCC(=O)Nc3ccccc3)n2C)cc1 (stereo not drawn) | 12.5%
22 | COc1cccc(OC)c1C(=O)Nc1cc(C)nn1-c1nc2ccccc2[nH]1 | 11.7%
23 | CCCCCn1c(SCC2CCCO2)nc2cc(C(=O)N3CCC(C(N)=O)CC3)ccc2c1=O (stereo not drawn) | -33.9%
24 | Cc1cccc(C(=O)NNC(=S)NC(=O)c2ccccc2)c1 | 13.6%
25 | N#Cc1ccc(OC(=O)C2CCN(C3=NS(=O)(=O)c4ccccc43)CC2)cc1 | 8.56%
26 | Cc1ccc(-c2nn(-c3ccccc3)cc2CNCc2ccccc2)cc1.Cl | 8.51%
27 | Cc1ccc(C(=O)NCC(c2ccc(F)cc2)N2CCOCC2)cc1 (stereo not drawn) | 12.4%
28 | CC(C#N)Sc1ccc(S(=O)(=O)N2CCCCC2)cn1 (stereo not drawn) | 4.24%
29 | COc1ccc(OCCOc2ccc(/C=C3\C(=N)N4N=C(C)SC4=NC3=O)cc2)cc1 | 12.3%
30 | N=C1S/C(=C\c2ccco2)C(=O)N1c1nccs1 | 15.3%
31 | Cc1ccc(NC(=O)C2(C)Cc3ccccc3C(=O)O2)cc1 (stereo not drawn) | 3.78%
32 | c1ccc(-c2[nH]ncc2CN2CCc3ccccc3C2)cc1 | 11.7%
33 | Cc1nc2ccc(OC(=O)c3ccccc3)cc2s1 | 9.01%
34 | O=C(O)CCSSCCC(=O)O | 5.89%
35 | Cl.OCCN1CCN(c2nc3ccccc3nc2-c2ccccc2)CC1 | 3.58%
36 | Cc1nc2ccc(NC(=O)c3cc(Cl)ccn3)cc2s1 | 10.2%
37 | CCn1c(CNC(=O)c2cccs2)nnc1SCC(=O)Nc1ccc(Cl)cc1 | -14.2%
38 | CCc1nc2c(c(=O)[nH]1)C(CC)(CC)Cc1ccccc1-2 | 0.0309%

Row | SMILES | hERG current change (%, negative = inhibition) at 1uM
39 | CC(=O)C1C(c2ccc(C)cc2)c2c(n[nH]c2C)CC1(C)O (stereo not drawn) | 9.65%
40 | CCOC(=O)c1cccc(NC(=O)C(NS(=O)(=O)c2ccc3c(c2)CCN3C(C)=O)C(C)C)c1 (stereo not drawn) | 3.7%
41 | O=C(CNC(=O)c1ccco1)OCc1c(F)cccc1Cl | -4.84%
42 | Cc1cccc(N(C(=O)c2csnn2)C(C(=O)NC2CCCC2)c2ccncc2)c1 (stereo not drawn) | 14.8%
43 | Cc1[nH]nc(SCC(=O)N2CCCCC2)c1[N+](=O)[O-] | 16.1%
44 | COc1ccc(NC2c3ccccc3C(=O)N2Cc2ccco2)cc1OC (stereo not drawn) | 5.58%
45 | CCOC(=O)c1ccccc1NC(=S)N1CC(C)CC(C)C1 (stereo not drawn) | 1.13%
46 | CCOc1ccc(OCC(O)CN2CCN(S(=O)(=O)c3cccc(C(F)(F)F)c3)CC2)cc1.O=C(O)C(=O)O (stereo not drawn) | 14.1%
47 | CCc1ccccc1NC(=O)CN1CCN(C(=O)CNC(=O)c2ccc(N3CCCC3=O)cc2)CC1 | -1.22%
48 | O=C(Nc1ccccc1N1CCOCC1)C1Cc2ccccc2CN1C(=O)c1ccco1 (stereo not drawn) | -3.76%
49 | O=C1CCC(/C=C/c2ccccc2)=NN1Cc1ccc(Cl)c(Cl)c1 | 2.78%
50 | CCOC(=O)c1ccc(COc2ccc(C(C)C)cc2)o1 | 6.45%
51 | O=C(Nc1ccccc1Cl)NC1(C(=O)NCc2ccncc2)CCCCC1 | 11.1%
52 | CC(C)=CC(=O)Nc1ccc(S(=O)(=O)Nc2onc(C)c2C)cc1 | 20.9%
53 | COc1ccccc1CN1CC(C(=O)N(C)CCc2nc3ccc(F)cc3[nH]2)CCC1=O (stereo not drawn) | 8.15%
54 | Cn1cc(C(=O)c2ccc(F)cc2)cc1-c1nc2ccccc2n1C | 0.0662%
55 | COCCn1c(-c2ccccc2F)n[nH]c1=S | 16.6%
56 | CCCCN(C)C(=O)c1nc2ccccn2c1CNC1CCC1 | 4.89%
57 | CCOC(=O)CCNC(=O)N1CCCC(Cc2ccccc2)(C(=O)OCC)C1 (stereo not drawn) | 9.25%

Reference: paper PMC4336329 (PLoS ONE, 2015)
